Substitutions are numbered along the chain they refer to; changes in the protein carry UniProt numbers. The list shows a part of the results.
T1: RBFOX1 RRM (Homo sapiens, UniProt Q9NWB1 109-208)
T1 sequence: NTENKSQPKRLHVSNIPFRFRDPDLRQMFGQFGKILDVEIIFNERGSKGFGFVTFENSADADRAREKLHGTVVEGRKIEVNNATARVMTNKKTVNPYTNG

B1: ACGAGCG (DNA:RNA)
RNA: GGGAGACCGGAAUUCAGAUUGUCCACGAGCGUUAAAUCCCGUCGUAGCCACCA
DNA 1: CAATCTGAATTCCGGTCTCCC
DNA 2: TGGTGGCTACGACGGGATT
B2: AAAAGGA (DNA:RNA)
RNA: B1 RNA with C26A, G27A, C30G, G31A
DNA 1: CAATCTGAATTCCGGTCTCCC
DNA 2: TGGTGGCTACGACGGGATT
B3: CACUCCG (DNA:RNA)
RNA: B1 RNA with A25C, C26A, G27C, A28U, G29C
DNA 1: CAATCTGAATTCCGGTCTCCC
DNA 2: TGGTGGCTACGACGGGATT
B4: UAAGCCG (DNA:RNA)
RNA: B1 RNA with A25U, C26A, G27A, A28G, G29C
DNA 1: CAATCTGAATTCCGGTCTCCC
DNA 2: TGGTGGCTACGACGGGATT
B5: CUUCGCU (DNA:RNA)
RNA: B1 RNA with A25C, C26U, G27U, A28C, G31U
DNA 1: CAATCTGAATTCCGGTCTCCC
DNA 2: TGGTGGCTACGACGGGATT
B6: UUGUUGA (DNA:RNA)
RNA: B1 RNA with A25U, C26U, A28U, G29U, C30G, G31A
DNA 1: CAATCTGAATTCCGGTCTCCC
DNA 2: TGGTGGCTACGACGGGATT
B7: AGAUGAU (DNA:RNA)
RNA: B1 RNA with C26G, G27A, A28U, C30A, G31U
DNA 1: CAATCTGAATTCCGGTCTCCC
DNA 2: TGGTGGCTACGACGGGATT
B8: GUGACGG (DNA:RNA)
RNA: B1 RNA with A25G, C26U, G29C, C30G
DNA 1: CAATCTGAATTCCGGTCTCCC
DNA 2: TGGTGGCTACGACGGGATT
B9: CCCGCUC (DNA:RNA)
RNA: B1 RNA with A25C, G27C, A28G, G29C, C30U, G31C
DNA 1: CAATCTGAATTCCGGTCTCCC
DNA 2: TGGTGGCTACGACGGGATT
B10: AGUUUCC (DNA:RNA)
RNA: B1 RNA with C26G, G27U, A28U, G29U, G31C
DNA 1: CAATCTGAATTCCGGTCTCCC
DNA 2: TGGTGGCTACGACGGGATT
B11: AGGUACC (DNA:RNA)
RNA: B1 RNA with C26G, A28U, G29A, G31C
DNA 1: CAATCTGAATTCCGGTCTCCC
DNA 2: TGGTGGCTACGACGGGATT
B12: UGAUAGG (DNA:RNA)
RNA: B1 RNA with A25U, C26G, G27A, A28U, G29A, C30G
DNA 1: CAATCTGAATTCCGGTCTCCC
DNA 2: TGGTGGCTACGACGGGATT
B13: ACCCGGA (DNA:RNA)
RNA: B1 RNA with G27C, A28C, C30G, G31A
DNA 1: CAATCTGAATTCCGGTCTCCC
DNA 2: TGGTGGCTACGACGGGATT
B14: CGAGUGU (DNA:RNA)
RNA: GGGAGACCGGAAUUCAGAUUGUCCCGAGUGUUUAAAUCCCGUCGUAGCCACCA
DNA 1: CAATCTGAATTCCGGTCTCCC
DNA 2: TGGTGGCTACGACGGGATT
B15: CCACACG (DNA:RNA)
RNA: B1 RNA with A25C, G27A, A28C, G29A
DNA 1: CAATCTGAATTCCGGTCTCCC
DNA 2: TGGTGGCTACGACGGGATT
B16: UCCUUUG (DNA:RNA)
RNA: B1 RNA with A25U, G27C, A28U, G29U, C30U
DNA 1: CAATCTGAATTCCGGTCTCCC
DNA 2: TGGTGGCTACGACGGGATT
B17: UGUCUAA (DNA:RNA)
RNA: B14 RNA with C25U, A27U, G28C, G30A, U31A
DNA 1: CAATCTGAATTCCGGTCTCCC
DNA 2: TGGTGGCTACGACGGGATT
B18: AUACAUU (DNA:RNA)
RNA: B14 RNA with C25A, G26U, G28C, U29A, G30U
DNA 1: CAATCTGAATTCCGGTCTCCC
DNA 2: TGGTGGCTACGACGGGATT
B19: AGGGCGA (DNA:RNA)
RNA: B14 RNA with C25A, A27G, U29C, U31A
DNA 1: CAATCTGAATTCCGGTCTCCC
DNA 2: TGGTGGCTACGACGGGATT
B20: CUCACCA (DNA:RNA)
RNA: B1 RNA with A25C, C26U, G27C, G29C, G31A
DNA 1: CAATCTGAATTCCGGTCTCCC
DNA 2: TGGTGGCTACGACGGGATT

molecular target: T1, RBFOX1 RRM; experiment: EMSA; HiTS-Eq, 1 nM pool, 10 min; buffer printed only for the single-RNA assays: 10 mM Tris pH 7.5, 150 mM NaCl, 3.4 mM EDTA, 0.001% NP-40, 30 C; conditions: tags: His6 N-terminal (pET28a); label: 5' 32P
How it was run: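 These values rest on relative association constants, computed from read-count changes of each RNA species versus the control reaction and normalised to the cognate motif. Reads came from free RNA recovered by 8% native PAGE after purified RbFox RRM (wild type or mutant) at increasing concentrations was equilibrated for 10 min in 50 µL with 1 nM of a 5′-radiolabelled pool with 7 randomized nucleotides and DNA-annealed flanks.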

Row | Binder | binding signal
1 | B1 | 0.014 KA relative to UGCAUGU
2 | B2 | 0.00105 KA relative to UGCAUGU
3 | B3 | 0.00227 KA relative to UGCAUGU
4 | B4 | 0.00658 KA relative to UGCAUGU
5 | B5 | 0.0136 KA relative to UGCAUGU
6 | B6 | 0.0329 KA relative to UGCAUGU
7 | B7 | 0.00975 KA relative to UGCAUGU
8 | B8 | 0.0168 KA relative to UGCAUGU
9 | B9 | 0.00969 KA relative to UGCAUGU
10 | B10 | 0.0149 KA relative to UGCAUGU
11 | B11 | 0.00718 KA relative to UGCAUGU
12 | B12 | 0.0108 KA relative to UGCAUGU
13 | B13 | 0.00307 KA relative to UGCAUGU
14 | B14 | 0.018 KA relative to UGCAUGU
15 | B15 | 0.0022 KA relative to UGCAUGU
16 | B16 | 0.0195 KA relative to UGCAUGU
17 | B17 | 0.00962 KA relative to UGCAUGU
18 | B18 | 0.000451 KA relative to UGCAUGU
19 | B19 | 0.0185 KA relative to UGCAUGU
20 | B20 | 0.00172 KA relative to UGCAUGU

Reference: article PMC9911399, “Two distinct binding modes provide the RNA-binding protein RbFox with extraordinary sequence specificity”
